{"source": "patent US6344564B1", "about": "“Fungicidal 2-imidazolin-5-ones and 2-imidazoline-5-thiones” (priority 1992, dated 2002)"}
{"tested_on": "Puccinia recondita", "assay": "In vivo test on Puccinia recondita (brown rust of wheat)", "conditions": "dose of 1 g/l, wheat sprayed 24 hours before infection, monitoring between 8th and 15th day after infection, read-out: protection", "protocol": "An aqueous suspension of the active material to be tested is prepared, by fine milling, having the following composition:\nTween 80 surface-active agent (oleate of polyoxyethylenated derivative of sorbitan) diluted to 10% in water: 0.3 ml\n(§1) volume made up to 60 ml with water.\n(§2) This aqueous suspension is then diluted with water to produce the desired concentration of active material.\nWheat, in pots, sown on a 50/50 peat/pozzolana earth substrate, is treated at the 10 cm high stage by spraying the above aqueous suspension.\n(§3) After 24 hours, an aqueous suspension of spores (100,000 sp/cm^3) of Puccinia recondita is sprayed on the wheat; this suspension was obtained from infected plants. The wheat is then placed for 24 hours in an incubation cell at approximately 20° C. and at 100% relative humidity, and then for 7 to 14 days at 60% relative humidity.\nMonitoring of the condition of the plants is carried out between the 8th and 15th day after infection, by comparison with an untreated control.", "units": {"pest or weed control at 1000 µg/mL": "%"}}
{"smiles": "CSC1=NC(C)(c2ccccc2)C(=O)N1Nc1ccccc1", "note": "(centres unmarked) [Compound 9, 4-methyl-2-methylthio-4-phenyl-1-phenylamino-2-imidazolin-5-one]", "pest or weed control at 1000 µg/mL": "≥ 75"}
{"smiles": "CSC1=NC(C)(c2ccccc2)C(=O)N1N(C)c1ccccc1", "note": "(centres unmarked) [Compound 22, 4-methyl-1-(N-methyl-N-phenylamino)-2-methylthio-4-phenyl-2-imidazolin-5-one]", "pest or weed control at 1000 µg/mL": "≥ 75"}
{"smiles": "CSC1=NC(C)(c2ccc(F)cc2)C(=O)N1Nc1ccccc1", "note": "(centres unmarked) [Compound 68, 4-Methyl-2-methylthio-4-(4-fluorophenyl)-1-phenylamino-2-imidazolin-5-one]", "pest or weed control at 1000 µg/mL": "≥ 75"}
{"smiles": "CSC1=NC2(CCc3ccccc32)C(=O)N1Nc1ccccc1", "note": "(centres unmarked) [Compound 98]", "pest or weed control at 1000 µg/mL": "≥ 75"}
{"smiles": "CC1=NC(C)(c2ccccc2)C(=O)N1Nc1ccccc1", "note": "(centres unmarked) [Compound 201, 2,4-dimethyl-4-phenyl-1-phenylamino-2-imidazolin-5-one]", "pest or weed control at 1000 µg/mL": "≥ 75"}
{"smiles": "CC1=NC2(CCc3ccccc32)C(=O)N1Nc1ccccc1", "note": "(centres unmarked) [Compound 228]", "pest or weed control at 1000 µg/mL": "≥ 75"}
{"tested_on": "Puccinia recondita", "assay": "In vivo comparative test on Puccinia recondita (brown rust of wheat), IC75 of enantiomers and racemic modifications", "conditions": "concentration at which 75% inhibition of the disease is observed; wheat (Talent) sprayed 24 hours before infection with Puccinia recondita spores; monitored between 8th and 15th day after infection vs untreated control", "protocol": "An aqueous pension of the active material to be tested is prepared, by fine milling, having the following composition:\nTween 80 surface-active agent (oleate of polycondensate of ethylene oxide with sorbitan) diluted to 10% in water: 0.3 ml\nas §1\nThe active material to be tested is either one of the two enantiomers of formula (I′″) according to the invention or the corresponding racemic modification.\nas §2\nWheat of the Talent variety, in pots, sown on a 50/50 peat/pozzolana earth substrate, is treated at the 10 cm high stage by spraying the above aqueous suspension.\nas §3, with “seedlings.” for “plants.”\nMonitoring of the condition of the seedings is carried out between the 8th an 15th day after infection, by comparison with an untreated control."}
{"smiles": "CSC1=NC(C)(c2ccccc2)C(=O)N1Nc1ccccc1", "note": "(racemic) [501 + 502]", "IC75 (ppm)": "330 ppm"}
{"smiles": "COC1=NC(C)(c2ccccc2)C(=O)N1Nc1ccccc1", "note": "(racemic) [503 + 504]", "IC75 (ppm)": "330 ppm"}
{"smiles": "COC1=NC(C)(c2ccc(Br)cc2)C(=O)N1Nc1ccccc1", "note": "(racemic) [505 + 506]", "IC75 (ppm)": "330 ppm"}
{"smiles": "CSC1=NC(C)(c2ccc(F)cc2)C(=O)N1Nc1ccccc1", "note": "(racemic) [511 + 512]", "IC75 (ppm)": "37-110 ppm"}
{"smiles": "CSC1=NC(C)(c2ccc(F)cc2)C(=O)N1Nc1cccc(F)c1", "note": "(racemic) [513 + 514]", "IC75 (ppm)": "37 ppm"}
{"smiles": "COC1=NC(C)(c2ccc(F)cc2)C(=O)N1Nc1ccccc1", "note": "(racemic) [525 + 526]", "IC75 (ppm)": "12 ppm"}
{"smiles": "COC1=NC(C)(c2ccc(F)cc2)C(=O)N1Nc1cccc(F)c1", "note": "(racemic) [527 + 528]", "IC75 (ppm)": "37 ppm"}
{"smiles": "COC1=NC(C)(c2ccc(F)cc2)C(=O)N1Nc1ccccc1", "note": "(single isomer, unassigned) [Compound 526]", "IC75 (ppm)": ">1000 ppm"}
{"smiles": "COC1=NC(C)(c2ccc(F)cc2)C(=O)N1Nc1cccc(F)c1", "note": "(single isomer, unassigned) [Compound 527]", "IC75 (ppm)": "4 ppm"}
{"smiles": "CSC1=N[C@@](C)(c2ccccc2)C(=O)N1Nc1ccccc1", "note": "[Compound 501, (+)-(4S)-4-methyl-2-methylthio-4-phenyl-1-phenylamino-2-imidazolin-5-one]", "IC75 (ppm)": "37 ppm"}
{"smiles": "CSC1=NC(C)(c2ccccc2)C(=O)N1Nc1ccccc1", "note": "(centres unmarked) [Compound 502]", "IC75 (ppm)": ">1000 ppm"}
{"smiles": "COC1=N[C@@](C)(c2ccccc2)C(=O)N1Nc1ccccc1", "note": "[Compound 503, (+)-(4S)-4-methyl-2-methoxy-4-phenyl-1-phenylamino-2-imidazolin-5-one]", "IC75 (ppm)": "110 ppm"}
{"smiles": "COC1=NC(C)(c2ccccc2)C(=O)N1Nc1ccccc1", "note": "(centres unmarked) [Compound 504]", "IC75 (ppm)": ">1000 ppm"}
{"smiles": "COC1=NC(C)(c2ccc(Br)cc2)C(=O)N1Nc1ccccc1", "note": "(centres unmarked) [Compound 505]", "IC75 (ppm)": "110-330 ppm"}
{"smiles": "COC1=NC(C)(c2ccc(Br)cc2)C(=O)N1Nc1ccccc1", "note": "(centres unmarked) [Compound 506]", "IC75 (ppm)": ">1000 ppm"}
{"smiles": "CSC1=N[C@@](C)(c2ccc(F)cc2)C(=O)N1Nc1ccccc1", "note": "[Compound 511]", "IC75 (ppm)": "12-37 ppm"}
{"smiles": "CSC1=N[C@@](C)(c2ccc(F)cc2)C(=O)N1Nc1cccc(F)c1", "note": "[Compound 513]", "IC75 (ppm)": "12 ppm"}
